These are yes or no findings as the source states them, for the method shown. In cells and extracts the contact can be indirect. Some entries that bind do so weakly or less than the wild type. For some assays here: Tags and fused reporters may be left off the sequences shown.
Key:
[1] = biological target: HA-tagged 14-3-3β, expressed in HEK293 cells (UniProt P31946); experiment: co-IP; HEK293 cells co-transfected with myc-CdGAP and HA-14-3-3 isoforms; HA-14-3-3 immunoprecipitated from total cell lysates, blotted with anti-Myc and anti-HA
[2] = biological target: T1, Myc-tagged human CdGAP-Q683X (AOS-related mutant) (human) (UniProt Q2M1Z3); experiment: co-IP; COS-7 cells co-transfected with HA-14-3-3β and myc-hCdGAP constructs; Myc-hCdGAP proteins immunoprecipitated from total cell lysates in duplicates; blotted with anti-Myc and anti-HA
T1 sequence: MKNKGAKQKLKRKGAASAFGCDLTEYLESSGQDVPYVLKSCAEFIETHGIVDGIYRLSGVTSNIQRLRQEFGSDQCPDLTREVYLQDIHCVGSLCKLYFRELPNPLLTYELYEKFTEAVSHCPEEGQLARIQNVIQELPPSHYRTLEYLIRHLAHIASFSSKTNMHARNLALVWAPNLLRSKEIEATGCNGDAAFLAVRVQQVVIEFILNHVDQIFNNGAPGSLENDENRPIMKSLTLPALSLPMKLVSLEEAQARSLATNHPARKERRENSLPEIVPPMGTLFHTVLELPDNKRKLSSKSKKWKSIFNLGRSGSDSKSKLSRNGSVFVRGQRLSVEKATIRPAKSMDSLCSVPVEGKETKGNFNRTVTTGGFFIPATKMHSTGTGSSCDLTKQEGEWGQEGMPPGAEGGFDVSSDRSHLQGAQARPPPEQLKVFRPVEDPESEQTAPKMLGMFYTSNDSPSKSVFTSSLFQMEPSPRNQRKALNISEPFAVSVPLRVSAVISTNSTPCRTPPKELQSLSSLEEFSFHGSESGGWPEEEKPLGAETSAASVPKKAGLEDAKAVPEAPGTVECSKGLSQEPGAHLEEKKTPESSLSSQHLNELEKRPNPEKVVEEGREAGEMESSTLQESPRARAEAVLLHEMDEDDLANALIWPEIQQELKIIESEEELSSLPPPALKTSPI

Chains of the proteins cited; added tags and fusions are not shown.
UniProt P31946: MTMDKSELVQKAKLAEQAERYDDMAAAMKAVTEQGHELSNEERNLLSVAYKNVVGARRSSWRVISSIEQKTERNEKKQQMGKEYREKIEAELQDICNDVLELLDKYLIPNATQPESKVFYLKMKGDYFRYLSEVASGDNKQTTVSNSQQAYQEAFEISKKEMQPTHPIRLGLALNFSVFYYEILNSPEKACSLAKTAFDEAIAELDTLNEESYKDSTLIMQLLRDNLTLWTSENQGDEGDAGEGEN

[3] = biological target: Myc-tagged human CdGAP (hCdGAP) wild-type (human) (UniProt Q2M1Z3); experiment: as above
[4] = biological target: T2, GFP-CdGAP N-terminal PBR-GAP fragment (1-221) (mouse) (UniProt A6X8Z5); experiment: co-IP; COS-7 cells co-transfected with GFP-CdGAP constructs and HA-14-3-3β, unstimulated or treated with PMA; GFP-CdGAP proteins immunoprecipitated from total cell lysates; immunoblot
T2 sequence: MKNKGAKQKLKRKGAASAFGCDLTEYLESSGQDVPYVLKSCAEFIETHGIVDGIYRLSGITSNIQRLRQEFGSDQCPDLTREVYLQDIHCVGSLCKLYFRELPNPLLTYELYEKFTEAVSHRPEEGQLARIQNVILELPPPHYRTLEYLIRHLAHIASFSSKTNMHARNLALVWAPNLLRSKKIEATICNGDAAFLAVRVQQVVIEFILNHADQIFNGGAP

[5] = biological target: GFP-CdGAP-S1093A/S1163A (mouse) (UniProt A6X8Z5); experiment: as above
GFP-CdGAP-S1093A (mouse) = GFP-CdGAP-S1093A (mouse) (UniProt A6X8Z5); experiment: as above
[6] = biological target: GFP-CdGAP C-terminal domain (1083-1425) (mouse) (UniProt A6X8Z5); experiment: as above
GFP-CdGAP-S1163A (mouse) = GFP-CdGAP-S1163A (mouse) (UniProt A6X8Z5); experiment: as above
GFP-CdGAP-S272A (mouse) = GFP-CdGAP-S272A (mouse) (UniProt A6X8Z5); experiment: as above
[7] = biological target: GFP-CdGAP wild-type (mouse CdGAP) (mouse) (UniProt A6X8Z5); experiment: as above
[8] = biological target: T3, GFP-CdGAP BR (181-515) (mouse) (UniProt A6X8Z5); experiment: as above
T3 sequence: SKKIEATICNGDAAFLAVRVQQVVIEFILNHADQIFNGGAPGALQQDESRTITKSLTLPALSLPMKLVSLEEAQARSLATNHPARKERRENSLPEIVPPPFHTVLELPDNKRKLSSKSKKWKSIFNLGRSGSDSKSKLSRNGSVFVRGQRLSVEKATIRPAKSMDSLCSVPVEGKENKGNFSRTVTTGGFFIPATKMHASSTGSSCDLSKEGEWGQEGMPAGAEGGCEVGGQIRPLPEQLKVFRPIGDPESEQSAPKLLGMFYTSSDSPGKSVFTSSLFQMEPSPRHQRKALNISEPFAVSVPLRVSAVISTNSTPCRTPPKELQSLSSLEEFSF

[9] = biological target: T4, GFP-CdGAP PRD (516-820) (mouse) (UniProt A6X8Z5); experiment: as above
T4 sequence: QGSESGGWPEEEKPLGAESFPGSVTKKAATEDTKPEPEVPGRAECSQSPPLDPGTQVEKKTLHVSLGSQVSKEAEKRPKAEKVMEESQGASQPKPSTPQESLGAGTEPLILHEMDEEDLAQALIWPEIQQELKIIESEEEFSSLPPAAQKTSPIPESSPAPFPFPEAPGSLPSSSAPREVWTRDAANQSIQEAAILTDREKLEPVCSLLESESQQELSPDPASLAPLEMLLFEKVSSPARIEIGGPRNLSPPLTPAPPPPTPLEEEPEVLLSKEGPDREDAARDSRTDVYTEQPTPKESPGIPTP

[10] = biological target: endogenous CdGAP of MDA-MB-231 cells (human (endogenous in MDA-MB-231)) (UniProt Q2M1Z3); experiment: co-IP; endogenous CdGAP immunoprecipitated with anti-CdGAP antibodies (rabbit IgGs as control) from lysates of MDA-MB-231 cells, with or without TGFβ (5 ng/ml) stimulation; immunoblot
[11] = biological target: Myc-tagged CdGAP (wild-type), expressed in HEK293 cells (not stated (human or mouse cDNA cloned)) (UniProt Q2M1Z3); experiment: co-IP; HEK293 cells co-transfected with myc-CdGAP and HA-14-3-3 isoforms; Myc-CdGAP immunoprecipitated from total cell lysates, blotted with anti-Myc and anti-HA

Myc-tagged CdGAP (wild-type), expressed in HEK293 cells (from UniProt Q2M1Z3 1-1444)
binding [1]: binds

HA-tagged 14-3-3β, expressed in COS-7 cells (from UniProt P31946 1-246)
binding [2]: binds | binding [3]: binds | binding [4]: binds | binding [5]: binds weakly | binding (GFP-CdGAP-S1093A (mouse)): binds | binding [6]: binds | binding (GFP-CdGAP-S1163A (mouse)): binds | binding (GFP-CdGAP-S272A (mouse)): binds | binding [7]: binds | binding [8]: binds | binding [9]: no binding

endogenous 14-3-3β of MDA-MB-231 cells (from UniProt P31946 1-246)
binding [10]: binds

HA-tagged 14-3-3β, expressed in HEK293 cells (from UniProt P31946 1-246)
binding [11]: binds

Source: PMC5837747
